Reference: ChEMBL document CHEMBL1201862, “PubChem BioAssay data set” (2004)
Values joined by “and” are separate entries in the source; they are usually repeats but may differ in a detail not shown here. Equal values may be shown once.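 Results reflect a 48-hour exposure of cells in 96-well plates to compound at five concentrations. GI50 = concentration required for 50% inhibition of growth.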 Active and inactive are the calls of the source. No stated cut-off is given here; in the data, active = GI50 up to about 1.1 µM and inactive = higher.

test system: NCI-H322M; experiment: NCI tumour cell line growth inhibition, 48 h

Structure (SMILES)	GI50
CCN(CC)CCNc1n[n+]([O-])c2cc([N+](=O)[O-])ccc2[n+]1[O-]	inactive: 2.01 µM
O=c1c2ccccc2nc(-c2ccccc2Cl)n1NC1OC(CO)C(O)C(O)C1O (stereo not given)	inactive: > 100 µM
CN(C)CCNC(=O)c1ccc(Cl)c2cc3ccccc3nc12	active: 0.82 µM
CN1CCN(Cc2nc3c(s2)CCc2sccc2-3)CC1	inactive: > 100 µM
COc1ccc2c(c1)/C(=C\c1c(Cl)[nH]c3cc(C)c(OC)cc13)C(=O)N2	inactive: 2.65 µM
CC(=O)/N=C1\NC(=O)/C(=C/c2ccccc2Cl)N1C	inactive: > 100 µM
O=c1[nH]nc(Cc2ccccc2)n1O	inactive: > 100 µM
Cc1cc2c(c(C(=O)NCC(=O)O)c1)Oc1c(cc(C)cc1C(=O)NCC(=O)O)S2	inactive: > 100 µM
CC1CCCc2c(C#N)c(N)nc(-c3ccc(Cl)cc3)c21 (stereo not given)	inactive: 19.8 µM
CCOC(=O)/C(C#N)=C(/NS(=O)(=O)c1cc(C)c(Cl)cc1[S-])[n+]1ccc(N(C)C)cc1	inactive: > 100 µM
CC(C)OP(=O)(CCCCCCCCC/C=C/c1ccc2c(c1)OCCOCCOCCOCCO2)OC(C)C	inactive: 3.33 µM
Cc1nc(-n2nc(-c3ccccc3)cc2-c2ccccc2)sc1C(/C=C/c1ccc([N+](=O)[O-])cc1)=N/NC(N)=S	inactive: 48.8 µM
CC(=O)Oc1ccc2c(c1)oc1c3ccc(OC(C)=O)cc3n(C)c(=O)c21	inactive: 11.6 µM
COc1cc(NCC(C#N)C#N)ccc1/N=N/c1ccc(Cl)cc1	inactive: 35 µM
O=S(=O)(O)CCCc1cccc2ccccc12	inactive: > 100 µM
O=C1/C(=C/c2cccc([N+](=O)[O-])c2)N=C(c2ccccc2)N1c1nc2ccc(Sc3ccccc3)cc2[nH]1	inactive: 54.3 µM
COc1ccc(OC)c2c1-c1nnnn1CCC2(C)C	inactive: > 100 µM
O=C(O)C(C(=O)O)P(=S)(S)c1ccccc1 (stereo not given)	inactive: > 100 µM
Cc1c2cnccc2nc2[nH]c3ccncc3c12	inactive: 5.3 µM
O=c1cc(-c2ccccc2)oc2cc(OCCCCCCCCCCOc3ccc4c(=O)cc(-c5ccccc5)oc4c3)ccc12	inactive: > 100 µM
O=C1NC(=S)NC1C(Cc1ccccc1)c1ccco1 (stereo not given)	inactive: > 100 µM
C[C@H](c1ccccc1)N1C(=O)[C@@H](O)[C@H]1[C@H](CO)OCc1ccccc1	inactive: > 100 µM
CCCCOC(=O)NC(Nc1ccc(S(=O)(=O)Nc2ncccn2)cc1)(C(F)(F)F)C(F)(F)F	inactive: > 100 µM

Structure (SMILES)	GI50
C[C@]12CC=CC(=O)[C@@]1(C)CCC(=O)C2	inactive: > 100 µM
CC(=O)Nc1ccc(-c2nnc(SCC(=O)Nc3ccccc3)o2)cc1	inactive: > 100 µM
C=C1C2CCC3C4(C)CCCC(C)(C(=O)O)C4CCC3(C2)C1OC(=O)/C(C)=C/C (stereo not given)	inactive: 53 µM
C[N+](C)(C)CC(=O)N/N=C(/CC(=O)CC(C1=C(O)c2ccccc2OC1)c1ccccc1)C(=O)Nc1cccc(Cl)c1 (stereo not given)	inactive: > 100 µM
Clc1ccc(C[P+]2(c3ccccc3)CCCCC2)cc1.[O-][Cl+3]([O-])([O-])[O-]	inactive: > 100 µM
CC1(C)O/C(=C\c2ccccc2)C(=O)/C(=C/c2ccccc2)O1	inactive: > 100 µM
CC1(C)SCc2nc3ccccc3n21	inactive: > 100 µM
COc1ccc(NC(=O)CC(=O)N/N=C(\C)c2cc3ccccc3oc2=O)cc1	inactive: > 100 µM
O=c1ssc(Cl)c1Cl	inactive: > 10 µM
O=C(O)c1cccc(CC(Br)C(=O)O)c1 (stereo not given)	inactive: > 100 µM
COc1ccc(C(C#N)NC23CC4CC(CC(C4)C2)C3)cc1 (stereo not given)	inactive: > 100 µM
Cn1c(=O)c2c3oc(=O)cc(O)c3c(=O)n3c4ccccc4n(c1=O)c23	inactive: 76.9 µM
O=C1NC(=N/c2ccccc2)/C(=N\c2ccccc2)N1c1ccccc1	inactive: 18.3 µM
CCN(CC)C1Oc2cc3c(cc2C(c2cc(OC)c(OC)c(OC)c2)C1C)OCO3 (stereo not given)	active: 0.966 µM
C#CCOC(=O)C=[N+]=[N-]	inactive: > 10 µM
COc1cc2c(cc1OCCCCCOc1cc3c(cc1OC)C(=O)N1CCC[C@H]1CN3)N=C[C@@H]1CCCN1C2=O	inactive: 14.3 µM
CCC(=O)C1=C(OC(C)=O)C2Cc3c(n(C)c4ccccc34)C(C1)N2C (stereo not given)	inactive: > 100 µM
CC1(C)C2CCC1(C)C(NC(=O)CCN1CCOCC1)C2 (stereo not given)	inactive: > 100 µM
Cn1sc2ccccc2c1=S	inactive: 20.5 µM
Cc1sc2c(c1C)C(=O)c1cccn1-2	inactive: > 100 µM
C=CCOc1ccc(C(=N/NC(=O)c2ccccc2)/N=N/c2ccc([N+](=O)[O-])cc2)cc1OC	inactive: 38.5 µM
Cc1ccc(C(=O)C(C)N)cc1C (stereo not given)	inactive: > 100 µM
Cc1ccccc1NC(=O)/C(=N/NC(=O)CC#N)C1C(=O)N(c2ccccc2)N=C1N (stereo not given)	inactive: > 100 µM

Structure (SMILES)	GI50
Cc1ccc(-n2cc(-c3ccc(Cl)cc3)c3c(NNC(=S)NCc4ccccc4)ncnc32)cc1	inactive: 5.87 µM
C=C(C)[C@@H]1CCC2=C[C@@H](OC2=O)[C@@H](C(=C)C)C2=CC(C(=O)O)=C(C1)O2	inactive: 93.3 µM
O=CN1CCN(C(=O)c2ccc(Cl)cc2)C1=S	inactive: 15.8 µM
CN(C)CCNC(=O)c1cccc2nc3c(nc12)-c1ccccc1C3=O	inactive: 11.5 µM
COc1cc(CCc2ccncc2)cc(OC)c1OC	inactive: > 100 µM
O=C(/C=C/c1cccc(Br)c1)N1CCN(CCOC(c2ccccc2)c2ccccc2)CC1	inactive: > 100 µM
O=[N+]([O-])c1ccc2c(/N=N/c3c(O)ccc4ccccc34)c(O)cc(S(=O)(=O)O)c2c1	inactive: 10.7 µM
Cc1c(N2C(=O)/C(=C/c3ccc(Cl)cc3)N=C2c2ccccc2)c(=O)n(-c2ccccc2)n1C	inactive: 31.6 µM
CC1(C)C=C(N2CCN(C3=CC(C)(C)NC(C)(C)C3)CC2)CC(C)(C)N1	inactive: > 100 µM
NC(=O)Nc1c(Cl)cc(S(N)(=O)=O)cc1Cl	inactive: > 100 µM
O=C(c1ccccc1)C1C(C(=O)c2ccccc2)N1Cc1ccccc1 (stereo not given)	inactive: 41.6 µM
[O-][n+]1c2cc(CN3CCOCC3)c(CN3CCOCC3)cc2[n+]([O-])c2c(O)cccc21	inactive: 9.27 µM
CC(=O)OC(C)(C)/C=C/C(=O)[C@](C)(O)[C@H]1[C@H](O)C[C@@]2(C)[C@@H]3CC=C4[C@@H](C=C(O)C(=O)C4(C)C)[C@]3(C)C(=O)C[C@]12C [CUCURBITACIN E]	active: 0.794 µM
[N-]=[N+]=CC(=O)OCC1NC(=O)C(COC(=O)C=[N+]=[N-])NC1=O (stereo not given)	inactive: > 100 µM
O=C1C2CCCCC2C(=O)N1n1c(Cc2ccccc2)n[nH]c1=O (stereo not given)	inactive: > 100 µM
COC(=O)c1ccc(/N=N/N(C)COc2ccc([N+](=O)[O-])cc2)cc1	inactive: > 100 µM
CC1OC(OC2C(OC(=O)[C@]34CCC(C)(C)C[C@H]3C3=CC[C@@H]5[C@@]6(C)CC[C@H](OC7OC(C(=O)O)C(O)C(O)C7O)C(C)(C)[C@@H]6CC[C@@]5(C)[C@]3(C)CC4)OCC(O)C2O)C(O)C(O)C1OC1OCC(O)C(O)C1O (stereo not given in full)	inactive: 19.5 µM and inactive: 36.9 µM
C/C(CC(=O)Nc1cccc(Cl)c1C)=N\NC(=O)c1ccncc1	inactive: > 100 µM
CCOC(=O)C(O)(NC(=O)Nc1ccc(F)cc1)C(F)(F)F (stereo not given)	inactive: > 100 µM
Cc1c(C(=O)OCc2ccccc2)[n+]([O-])c2ccccc2[n+]1[O-]	inactive: 26.4 µM
CC(C)NC1CCCCC2c3cc(F)ccc3[C@]12O (stereo not given in full)	inactive: > 100 µM
COC1(OC)CC2C=C(S(=O)(=O)c3ccccc3)C1N(Cc1ccccc1)C2=O (stereo not given)	inactive: 49.5 µM
CN1CC[C@]23c4c5ccc(O)c4OC2c2[nH]ncc2C[C@H]3[C@H]1C5 (stereo not given in full)	inactive: > 100 µM

Structure (SMILES)	GI50
COC1/C(=C\c2ccccc2I)c2ccccc2N1C(C)=O (stereo not given)	inactive: 17.2 µM
CCN(CC)CCn1c2ccccc2c(=O)c2c(O)ccc(O)c21	inactive: 48.4 µM
CCC1=NC(N/N=C/c2ccco2)=N/C1=C\c1ccccc1O	inactive: 23.7 µM
COC(=O)c1oc([N+](=O)[O-])c(-c2ccccc2)c1-c1ccccc1	inactive: 52.7 µM
OCC1NCC(O)C(O)C1O (stereo not given)	inactive: > 100 µM
NCCCNCCCNCCCN	inactive: > 100 µM
COc1ccc(/N=C2\C(=O)Nc3ccc(Br)cc32)cc1	inactive: 19.8 µM
Cc1cn(C(CO)OC(CO)CN(O)C2C3CC4CC(C3)CC2C4)c(=O)[nH]c1=O (stereo not given)	inactive: > 100 µM
FC(F)(F)C1(c2ccccc2)SCc2nc3ccccc3n21 (stereo not given)	inactive: > 100 µM
O=C1NC(N2CCCC(CO)C2)=N/C1=C\c1ccc(Cl)cc1 (stereo not given)	inactive: > 100 µM
CCCCCCCCCCCCCC(=O)CSCCNC(=O)CCNC(=O)[C@@H](O)C(C)(C)COP(=O)(O)OP(=O)(O)OCC1OC(n2cnc3c(N)ncnc32)C(O)C1OP(=O)(O)O (stereo not given in full)	inactive: 20.1 µM
O=C(Nc1cccc(C(F)(F)F)c1)C(=O)C(C(=O)c1ccc(Cl)c(Cl)c1)C1OC(=O)c2ccccc21 (stereo not given)	inactive: 33.3 µM
C=C(Br)N(CC)CC	inactive: > 100 µM
C#C[C@]1(O)CC[C@H]2[C@@H]3CCC4=C/C(=N/OC(=O)c5cccc6c(=O)c7ccccc7[nH]c56)CC[C@@H]4[C@H]3CC[C@@]21C	inactive: 99.8 µM
O=C1NN=C(c2ccc(Cl)cc2)CC1C1C(=O)N(c2ccccc2)N=C1c1ccccc1 (stereo not given)	inactive: 20.3 µM
Cc1cccc(-c2cc(O)c3c(C)cc(C)nc3n2)c1	inactive: 4.11 µM
CC(=O)/N=C1/N(/C=C2\C(=O)Oc3ccccc3C2=O)C(=O)/C(=C/c2cccc(Cl)c2Cl)N1C	inactive: 35.2 µM
Cc1cc(C(=C2C=CC(=N)C=C2)c2ccc(N)cc2)ccc1N [FUCHSIN, BASIC]	inactive: 4.41 µM
c1ccc2c(c1)NC1(N3CCCCC3)CCCCC21 (stereo not given)	inactive: 86.9 µM
O=C(/C=C/c1ccccc1)c1ccc(NCc2nc3ccccc3[nH]2)cc1	inactive: 12.1 µM
O=C(O)/C=c1/c2ccccc2n2nc3ccccc3c12	inactive: 18.7 µM
